Source: the supplement of paper PMC10369915
The other results are listed elsewhere or left out. No stated cut-off is given here; in the data, active = 3.2 or more and inactive = the rest. The signal is at background level for most entries.

Experiments:
Assay in all cases: enrichment score (SH2-bound / input frequency) (ratio); bacterial display of known human phosphotyrosine sites (pTyr-Var adds point mutants) read by sequencing; higher = stronger binding; tyrosines were phosphorylated by kinases first
Settings in all cases: peptide library: Human pTyr
SHP2 C-SH2 domain E139D = target: SHP2 C-SH2 domain E139D
[1] = target: SHP2 C-SH2 domain wild-type
SHP2 N-SH2 domain L43F = target: SHP2 N-SH2 domain L43F
SHP2 N-SH2 domain T42A = target: SHP2 N-SH2 domain T42A
SHP2 N-SH2 domain T52S = target: SHP2 N-SH2 domain T52S
[2] = target: SHP2 N-SH2 domain wild-type
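Further: displayed peptides selected on beads carrying the immobilized SH2 domain, with library peptides lacking any tyrosine serving as negative controls.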

Binder	enrichment score (SHP2 C-SH2 domain E139D)	enrichment score [1]	enrichment score (SHP2 N-SH2 domain L43F)	enrichment score (SHP2 N-SH2 domain T42A)	enrichment score (SHP2 N-SH2 domain T52S)	enrichment score [2]
EDEHSVNYKPPAQKS [ARHGDIA_HUMAN_27]	inactive: 0.744	inactive: 0.803	inactive: 0.705	inactive: 0.706	inactive: 0.718	inactive: 0.77
KGASDEIYVVPDDSQ [ARHGAP5_HUMAN_1109_YA]	inactive: 1.33	inactive: 1.44	inactive: 1.1	inactive: 1.29	inactive: 1.42	inactive: 1.46
TGDYYDLYGGEKFAT [PTN11_HUMAN_66]	inactive: 0.71	inactive: 0.782	inactive: 0.685	inactive: 0.716	inactive: 0.47	inactive: 0.419
NRPPPNAYELFAKGA [PRMT5_HUMAN_297_YA]	inactive: 1	inactive: 1.01	inactive: 0.96	inactive: 0.81	inactive: 0.943	inactive: 1.15
AQAMGSGYTKAVARV [PKDCC_HUMAN_148_YA]	inactive: 0.801	inactive: 0.756	inactive: 0.749	inactive: 0.974	inactive: 0.652	inactive: 0.925
AVQTEEQYRFLAHTV [PTPN18_HUMAN_281_YA]	inactive: 0.627	inactive: 0.702	inactive: 0.751	inactive: 0.794	inactive: 0.716	inactive: 0.837
SALAEDRYLLGTSLA [ASSY_HUMAN_87_YA]	inactive: 0.521	inactive: 0.45	inactive: 0.359	inactive: 0.507	inactive: 0.462	inactive: 0.531
EEGKGAVYSFDPVGS [PSB1_HUMAN_150]	inactive: 0.56	inactive: 0.625	inactive: 0.622	inactive: 0.527	inactive: 0.563	inactive: 0.569
YELFAKGYEDYLQSP [PRMT5_HUMAN_304]	inactive: 0.638	inactive: 0.614	inactive: 0.541	inactive: 0.53	inactive: 0.555	inactive: 0.515
TIPSQRRYVAAASAL [PTEN_HUMAN_174_YA]	inactive: 0.89	inactive: 1.02	inactive: 0.716	inactive: 0.796	inactive: 0.798	inactive: 0.816
DPVNHEWYPHAFVLT [PLCG1_HUMAN_506_YA]	inactive: 1.25	inactive: 1.29	inactive: 1.33	inactive: 1.3	inactive: 1.26	inactive: 1.32
VVLVDPDYLKDRKVF [ARRB2_HUMAN_48]	inactive: 0.679	inactive: 0.507	inactive: 0.638	inactive: 0.719	inactive: 0.689	inactive: 0.574
YIDAFSDYANFKGGG [PTPRA_HUMAN_798]	inactive: 0.79	inactive: 0.833	inactive: 1.04	inactive: 0.731	inactive: 0.726	inactive: 0.613
GQRDSSAYWEIEASE [RAF1_HUMAN_341_YA]	inactive: 1.01	inactive: 0.824	inactive: 0.809	inactive: 0.763	inactive: 0.994	inactive: 0.874
EGTPEGLYLGGGGGG [PRS4_HUMAN_439]	inactive: 0.586	inactive: 0.456	inactive: 0.45	inactive: 0.468	inactive: 0.507	inactive: 0.504
NHPDYEEYINLEGTR [ARHGAP5_HUMAN_306]	inactive: 1.01	inactive: 0.822	inactive: 0.897	inactive: 0.712	inactive: 0.795	inactive: 0.648
ALEEDVIYDDVPCES [ARGAL_HUMAN_131]	inactive: 1.18	inactive: 1.05	inactive: 1.04	inactive: 1.05	inactive: 0.994	inactive: 1.77
NVYYGQDYRNKYKAP [RAPH1_HUMAN_456]	inactive: 1.58	inactive: 1.97	inactive: 1.45	inactive: 1.77	inactive: 1.5	inactive: 1.77

Binder	enrichment score (SHP2 C-SH2 domain E139D)	enrichment score [1]	enrichment score (SHP2 N-SH2 domain L43F)	enrichment score (SHP2 N-SH2 domain T42A)	enrichment score (SHP2 N-SH2 domain T52S)	enrichment score [2]
SSPDDPNYSLVDDYS [PPIP2_HUMAN_323]	inactive: 0.854	inactive: 0.912	inactive: 0.835	inactive: 0.869	inactive: 0.886	inactive: 0.866
SRIGDELYLEPLEDG [RAD9A_HUMAN_28]	inactive: 1.19	inactive: 0.977	inactive: 1.12	inactive: 1.15	inactive: 1.25	inactive: 1.15
VFLKSWVYQPGEDTE [PR15A_HUMAN_391]	inactive: 1.1	inactive: 1.01	inactive: 1.03	inactive: 1.08	inactive: 1.27	inactive: 1.43
DPVNHEWYPHYFVLT [PLCG1_HUMAN_506]	inactive: 1.24	inactive: 1.23	inactive: 1.29	inactive: 1.21	inactive: 1.38	inactive: 1.26
VKHFTNPYCNIYLNS [RASA1_HUMAN_615]	inactive: 2.6	inactive: 2.37	inactive: 2.03	inactive: 2.04	inactive: 2.33	inactive: 2.54
EPDAGALYEGRNPGF [PLCG1_HUMAN_775_YA]	inactive: 0.543	inactive: 0.472	inactive: 0.518	inactive: 0.489	inactive: 0.541	inactive: 0.634
ALEKKSNYEVLEKDV [PTK2_HUMAN_194]	inactive: 1.31	inactive: 1.31	inactive: 1.19	inactive: 1.22	inactive: 1.25	inactive: 1.43
ALGINSGYSKRALML [PLD2_HUMAN_415]	inactive: 0.545	inactive: 0.405	inactive: 0.499	inactive: 0.428	inactive: 0.567	inactive: 0.479
ETRICKIYDSPCLPE [RAD51_HUMAN_315]	inactive: 0.875	inactive: 0.707	inactive: 0.666	inactive: 0.764	inactive: 0.667	inactive: 0.735
VVLVDPEYLKERRVA [ARRB1_HUMAN_47_YA]	inactive: 0.573	inactive: 0.566	inactive: 0.58	inactive: 0.633	inactive: 0.685	inactive: 0.781
WEKARPEYMLPVHFY [PYGB_HUMAN_197]	inactive: 0.972	inactive: 1.14	inactive: 1.11	inactive: 1.02	inactive: 1.09	inactive: 1.29
DQSRQMKYQSFNEAR [PTGS2_HUMAN_446_YA]	inactive: 0.845	inactive: 0.74	inactive: 0.689	inactive: 0.769	inactive: 0.741	inactive: 0.928
DSKVDLIYQNTTAMT [PTPRJ_HUMAN_1311]	inactive: 0.729	inactive: 0.603	inactive: 0.626	inactive: 0.612	inactive: 0.692	inactive: 0.662
MLGASGDYADFQYLK [PSB4_HUMAN_102]	inactive: 0.658	inactive: 0.611	inactive: 0.716	inactive: 0.611	inactive: 0.686	inactive: 0.545
TGDAADLYGGEKFAT [PTN11_HUMAN_66_YA]	inactive: 0.599	inactive: 0.589	inactive: 0.358	inactive: 0.414	inactive: 0.379	inactive: 0.44
SPLDKDTYPPSASVV [RBM15_HUMAN_266]	inactive: 0.507	inactive: 0.571	inactive: 0.876	inactive: 0.689	inactive: 0.569	inactive: 0.603
SKRKGHEYTNIKYSL [PTN11_HUMAN_546]	active: 3.39	active: 4.11	inactive: 3.13	active: 3.51	active: 4.5	active: 4.79
SAEEAPLYSKVTPRA [PTN18_HUMAN_389]	inactive: 0.808	inactive: 0.629	inactive: 0.67	inactive: 0.454	inactive: 0.612	inactive: 0.641
